Several values for one entry are separate records, joined by “and”; a condition that tells them apart may be missing. Identical values can stand only once. The inconclusive results got no clear call from the source; some entries with a clear call stand among them for comparison. For some assays here: Potencies beside an inconclusive call are fits to weak or partial responses and may not hold up. Activity calls are given as the source filed them. Unless noted, calls come from the whole dose curve; as a rule, active = well fitted curve in the direction sought with a large enough effect in the repeat runs; inconclusive = weak or mixed curves; inactive = no such curve, though single readings can be large; an effect the other way counts as inactive or inconclusive.
Assays:
[1] = qHTS RealTime-Glo MT Cell Viability Assay in HEK293 cells - 24 hour (AID 1224886); details: RealTime-Glo luminescence; series mostly up to 76.8 µM; note: nearly all actives have a fitted effect of over 50% in size; note: potency is the fitted concentration of half-maximal effect
Outline: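 Homogeneous bioluminescent viability format in HEK293 cells (600 cells/well). Following 5 h at 37 C/5% CO2, 23 nL compound was pintooled; the signal was measured repeatedly during 40 h incubation.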

[2] = qHTS RealTime-Glo MT Cell Viability Assay in HEK293 cells - 8 hour (AID 1224887); details: RealTime-Glo luminescence; series mostly up to 76.8 µM; note: nearly all actives have a fitted effect of over 50% in size; note: potency is the fitted concentration of half-maximal effect
Outline: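 Tox21 screen in HEK293 using RealTime-Glo MT chemistry, with cells and reagent co-dispensed. Luminescence proportional to viable cell number was captured at intervals during 40 h compound exposure at 37 C.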

[3] = qHTS assay to identify small molecule antagonists of the estrogen receptor alpha (ER-alpha) signaling pathway using the BG1 cell line in the presence of 0.1 nM 17-beta-estradiol - cell viability counter screen (AID 1259241); details: VM7Luc4E2 (BG1) viability, CellTiter-Fluor protease, 22 h, 0.1 nM estradiol agonist added; series mostly up to 92.4 µM; note: nearly all actives have a fitted effect of over 40% in size; note: potency is the fitted concentration of half-maximal effect
Outline: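 Following 5 days in phenol red-free medium with charcoal-stripped serum, VM7Luc4E2 cells received test compounds alongside 0.1 nM 17beta-estradiol (final) at 37C for 22 hr. Live cells were then quantified via protease-substrate fluorescence.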

[4] = qHTS assay to identify small molecule antagonists of the androgen receptor (AR) signaling pathway using the MDA cell line in the presence of 0.5 nM R1881 - cell viability counter screen (AID 1259242); details: MDA-kb2 viability, CellTiter-Fluor protease fluorescence, 16 h; series mostly up to 92.4 µM; note: nearly all actives have a fitted effect of over 45% in size; note: potency is the fitted concentration of half-maximal effect
Outline: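 R1881 at 0.5 nM final stimulated MDA-kb2 cells during 16 hr compound treatment at 37C. Cytotoxicity read: CellTiter-Fluor fluorescence after 30 min.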

[5] = biological target: Androgen receptor (Homo sapiens) (UniProt P10275); assay: qHTS assay to identify small molecule antagonists of the androgen receptor (AR) signaling pathway using the MDA cell line in the presence of 0.5 nM R1881 (AID 1259243); details: MDA-kb2 MMTV-luciferase, R1881 0.5 nM, 16 h; series mostly up to 92.4 µM; note: potency is the fitted concentration of half-maximal effect; nearly all actives have a fitted effect of over 50% in size
Outline: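 We exposed MDA-kb2 cells to compounds under 0.5 nM R1881 stimulation for 16 hr at 37C and quantified MMTV-driven luciferase by luminescence.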

[6] = biological target: Estrogen receptor (Homo sapiens) (UniProt P03372); assay: qHTS assay to identify small molecule antagonists of the estrogen receptor alpha (ER-alpha) signaling pathway using the BG1 cell line in the presence of 0.1 nM 17-beta-estradiol (AID 1259244); details: VM7Luc4E2 (BG1) ERE-luciferase, antagonist mode, 0.1 nM E2, 22 h; series mostly up to 92.4 µM; note: potency is the fitted concentration of half-maximal effect; nearly all actives have a fitted effect of over 50% in size
Outline: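 VM7Luc4E2; 4xERE-luciferase; 0.1 nM E2 final; 22 h co-incubation, 37C; ONE-Glo luminescence after 30 min at room temperature.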

[7] = A CellTox Green Cytotoxicity Assay to monitor cytotoxicity in HEK293 cells - 16 hour (AID 1224888); details: CellTox Green fluorescence; series mostly up to 76.8 µM; note: nearly all actives have a fitted effect of over 35% in size
Outline: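 Seeding of HEK293 cells together with cytotoxicity dye preceded a 5 h incubation at 37 C/5% CO2. Test compounds in DMSO were then added and fluorescence monitored across 40 h.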

[8] = A CellTox Green Cytotoxicity Assay to monitor cytotoxicity in HepG2 cells - 8 hour (AID 1224890); details: CellTox Green fluorescence; series mostly up to 76.8 µM; note: nearly all actives have a fitted effect of over 45% in size
Outline: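 Nonlytic assay: viable cells exclude the dye, so fluorescence scales with cell death. HepG2 at 600 cells/well, compounds added after 5 h, signal read across 40 h.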

[9] = qHTS assay to identify small molecule phospholipidosis (PLD) inducers (AID 1259344; active = well fitted curve in the direction sought with a large enough effect; inconclusive = small, poorly fitted or top-dose-only effect, or another doubt; inactive = no such curve, though single readings can be large; an effect the other way counts as inactive or inconclusive); details: HepG2 phospholipidosis, LipidTOX Red imaging, 24 h; series mostly up to 38.3 µM
Outline: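 HepG2 cells, 900/well, treated with compound plus LipidTOX Red for 24 h at 37 C; amiodarone positive and DMSO negative controls. Fixed with paraformaldehyde/Hoechst, then high-content imaging scored LipidTOX pit count and integrated intensity per well and per cell.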
Tags give direction and shape of the fitted curve.

Chain of UniProt P10275 (P10275 whole entry, looked up): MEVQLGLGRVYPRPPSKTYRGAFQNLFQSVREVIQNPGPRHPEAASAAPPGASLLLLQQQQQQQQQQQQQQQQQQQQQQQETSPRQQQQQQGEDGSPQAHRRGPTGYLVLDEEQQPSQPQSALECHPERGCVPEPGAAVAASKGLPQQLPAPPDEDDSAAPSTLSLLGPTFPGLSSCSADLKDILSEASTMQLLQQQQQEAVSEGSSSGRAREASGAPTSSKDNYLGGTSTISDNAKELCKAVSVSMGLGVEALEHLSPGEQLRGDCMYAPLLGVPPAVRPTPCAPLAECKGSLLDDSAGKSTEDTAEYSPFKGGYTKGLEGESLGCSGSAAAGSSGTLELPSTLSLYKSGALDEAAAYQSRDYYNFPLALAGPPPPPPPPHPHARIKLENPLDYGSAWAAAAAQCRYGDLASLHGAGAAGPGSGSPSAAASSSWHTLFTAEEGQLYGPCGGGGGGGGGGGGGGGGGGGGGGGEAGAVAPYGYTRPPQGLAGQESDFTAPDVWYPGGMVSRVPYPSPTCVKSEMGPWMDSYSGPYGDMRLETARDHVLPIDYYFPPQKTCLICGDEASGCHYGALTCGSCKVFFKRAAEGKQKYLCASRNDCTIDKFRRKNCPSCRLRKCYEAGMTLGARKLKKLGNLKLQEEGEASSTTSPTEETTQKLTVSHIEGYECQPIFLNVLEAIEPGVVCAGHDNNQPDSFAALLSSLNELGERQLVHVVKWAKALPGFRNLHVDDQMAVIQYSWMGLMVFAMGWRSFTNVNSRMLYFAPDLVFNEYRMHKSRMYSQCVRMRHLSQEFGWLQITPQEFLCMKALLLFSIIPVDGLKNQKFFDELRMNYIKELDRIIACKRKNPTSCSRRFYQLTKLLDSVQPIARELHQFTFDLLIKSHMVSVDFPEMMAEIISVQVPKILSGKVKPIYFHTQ
Chain of UniProt P03372 (P03372 whole entry, looked up): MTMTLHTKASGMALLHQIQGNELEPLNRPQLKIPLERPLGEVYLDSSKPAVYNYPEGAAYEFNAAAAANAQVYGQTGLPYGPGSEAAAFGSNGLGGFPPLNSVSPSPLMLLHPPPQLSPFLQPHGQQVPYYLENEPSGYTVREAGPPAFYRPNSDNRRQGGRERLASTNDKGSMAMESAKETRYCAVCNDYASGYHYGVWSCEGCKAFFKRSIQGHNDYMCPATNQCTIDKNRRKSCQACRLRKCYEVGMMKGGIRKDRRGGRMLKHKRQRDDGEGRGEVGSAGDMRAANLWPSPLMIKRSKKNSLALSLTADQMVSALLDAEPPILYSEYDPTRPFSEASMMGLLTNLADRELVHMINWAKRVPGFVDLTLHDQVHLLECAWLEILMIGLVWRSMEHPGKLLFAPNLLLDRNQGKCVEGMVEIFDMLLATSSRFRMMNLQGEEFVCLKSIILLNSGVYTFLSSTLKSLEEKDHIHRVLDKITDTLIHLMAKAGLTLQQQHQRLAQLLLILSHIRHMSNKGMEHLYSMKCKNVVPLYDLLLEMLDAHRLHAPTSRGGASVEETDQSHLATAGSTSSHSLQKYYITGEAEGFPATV

Question: For `Cc1ccccc1OP(=O)(Oc1ccccc1C)Oc1ccccc1C`, which Potency [1] is on record?
Answer: inconclusive: 31 µM [cytotoxic, partial curve]

Question: And the Potency [2]?
Answer: inconclusive: 24.6 µM [cytotoxic, partial curve, poor fit]

Question: What about the Potency [3] of the same molecule?
Answer: inactive

Question: For `Oc1c(Br)c(Br)c(Br)c(Br)c1Br`, which Potency [1] is on record?
Answer: inconclusive: 55.3 µM [cytotoxic, single point]

Question: What about the Potency [2] of the same molecule?
Answer: inconclusive: 55.3 µM [cytotoxic, single point]

Question: What about the Potency [4] of the same molecule?
Answer: inconclusive: 77.4 µM [cytotoxic]

Question: What about the Potency [5] of the same molecule?
Answer: inconclusive: 69 µM [inhibitor, single point]

Question: And the Potency [6]?
Answer: inconclusive: 34.6 µM [inhibitor, partial curve]

Question: For `O=C(NC(=O)c1c(F)cccc1F)Nc1cc(Cl)c(OC(F)(F)C(F)C(F)(F)F)cc1Cl` (configuration not stated), which Potency [1] is on record?
Answer: inconclusive: 4.9 µM [cytotoxic, full curve]

Question: What about the Potency [6] of the same molecule?
Answer: inconclusive: 33.5 µM [inhibitor, single point]

Question: For `N#CCCl`, which Potency [1] is on record?
Answer: inconclusive: 64.3 µM [cytotoxic, single point]

Question: What about the Potency [6] of the same molecule?
Answer: inconclusive: 71.5 µM [inhibitor, single point]

Question: With `CN(C)c1ccc(N(C)C)cc1` as the molecule, how does the Potency [1] read?
Answer: inconclusive: 3.48 µM [rising, full curve]

Question: What about the Potency [3] of the same molecule?
Answer: active: 61.3 µM

Question: And the Potency [4]?
Answer: inactive

Question: And the Potency [6]?
Answer: active: 30.7 µM

Question: For `O=NN1CCCCCCC1`, which Potency [2] is on record?
Answer: inactive

Question: Which Potency [2] does the source give for `CN` here?
Answer: inactive

Question: For `Cc1c(Cl)c(=O)oc2cc(OP(=O)(OCCCl)OCCCl)ccc12`, which Potency [1] is on record?
Answer: inconclusive: 19 µM [cytotoxic, partial curve]

Question: And the Potency [2]?
Answer: inconclusive: 9.52 µM [cytotoxic, partial curve]

Question: Which Potency [1] does the source give for `CCCCC(CC)COP(=O)(Oc1ccccc1)Oc1ccccc1` (configuration not stated) here?
Answer: inconclusive: 61.6 µM [cytotoxic, single point]

Question: And the Potency [5]?
Answer: inconclusive: 54.5 µM [inhibitor, partial curve]

Question: Which Potency [1] does the source give for `CC(COc1ccc(Oc2ccccc2)cc1)Oc1ccccn1` (configuration not stated) here?
Answer: inconclusive: 21.9 µM [cytotoxic, full curve]

Question: What about the Potency [2] of the same molecule?
Answer: inconclusive: 30.9 µM [cytotoxic, partial curve]

Question: What about the Potency [7] of the same molecule?
Answer: inactive

Question: What does the source list for `CCCCC(CC)COC(=O)OOC(C)(C)C` (configuration not stated)?
Answer: Potency [1]: inactive; Potency [2]: inconclusive: 12.3 µM [cytotoxic, partial curve, poor fit]

Question: For `CCC(=O)Nc1ccc(Cl)c(Cl)c1`, which Potency [2] is on record?
Answer: inconclusive: 50 µM [cytotoxic, partial curve] and inconclusive: 43.6 µM [cytotoxic, partial curve]

Question: For `COc1cc(N)c(Cl)cc1C(=O)NC1CN2CCC1CC2` (configuration not stated), which Potency [2] is on record?
Answer: inactive

Question: With `COP(=O)(OC)O/C(=C/Cl)c1cc(Cl)c(Cl)cc1Cl` as the molecule, how does the Potency [2] read?
Answer: inactive

Question: What does the source list for `CCS(=O)(=O)C(C)(C)S(=O)(=O)CC`?
Answer: Potency [1]: inactive; Potency [2]: inactive

Question: With `C#CCC1=C(C)C(OC(=O)C2C(C=C(C)C)C2(C)C)CC1=O` (configuration not stated) as the molecule, how does the Potency [2] read?
Answer: inconclusive: 27.4 µM [cytotoxic, partial curve]

Question: With `Oc1ccc(C(=C(Cl)Cl)c2ccc(O)cc2)cc1` as the molecule, how does the Potency [1] read?
Answer: active: 38.8 µM

Question: And the Potency [2]?
Answer: inconclusive: 43.6 µM [cytotoxic, partial curve]

Question: And the Potency [6]?
Answer: active: 61 µM

Question: For `c1ccc2c(c1)OCC(C1=NCCN1)O2` (configuration not stated), which Potency [1] is on record?
Answer: inconclusive: 19 µM [cytotoxic, partial curve]

Question: And the Potency [6]?
Answer: inconclusive: 33.5 µM [inhibitor, single point]

Question: Which Potency [1] does the source give for `c1coc(-c2nc3ccccc3[nH]2)c1` here?
Answer: inconclusive: 43.6 µM [cytotoxic, partial curve]

Question: What about the Potency [2] of the same molecule?
Answer: inconclusive: 43.6 µM [cytotoxic, partial curve]

Question: For `O=Cc1ccc2c(c1)OCO2`, which Potency [8] is on record?
Answer: inactive

Question: Which Potency [8] does the source give for `CC(C)NC(C)C` here?
Answer: inactive

Question: For `COC(=O)N(OC)c1ccccc1COc1ccn(-c2ccc(Cl)cc2)n1`, which Potency [3] is on record?
Answer: inconclusive: 0.686 µM [cytotoxic, full curve]

Question: For `CCc1ccc(C(=O)NN(C(=O)c2cc(C)cc(C)c2)C(C)(C)C)cc1`, which Potency [3] is on record?
Answer: inconclusive: 5.45 µM [cytotoxic, full curve]

Question: With `COC(=O)c1c(C(F)F)nc(C(F)(F)F)c(C2=NCCS2)c1CC(C)C` as the molecule, how does the Potency [5] read?
Answer: inconclusive: 61.1 µM [inhibitor, partial curve, poor fit]

Question: For `CNC(=O)NC(O)C(Cl)(Cl)Cl` (configuration not stated), which Potency [9] is on record?
Answer: inactive

Question: For `COc1ccc(OC)c(CC(C)N)c1` (configuration not stated), which Potency [9] is on record?
Answer: inactive

From PubChem BioAssay (Tox21)
